Laboratory results taken from the supplement of paper PMC4604168 (melanoma cell lines).
This is one part of the list. Many values rest on one well or one pass, so single values are uncertain.

system: SkMel30; assay: cell count relative to DMSO control; melanoma cells; higher = more viable cells; conditions: library dose: standard library concentration; 72 h
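Further: cells treated in 1,536-well plates, then fixed and DAPI-stained, with nuclei counted from automated high-throughput microscope images.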

Compound | cell count
CCCCCCCCc1ccc(CCC(N)(CO)CO)cc1 [fingolimod] + CCN(CC)CCCCNc1ncc2cc(-c3cc(OC)cc(OC)c3)c(NC(=O)NC(C)(C)C)nc2n1 [PD173074] (first compound 10 µM, partner dose 0.5 µM) | 40.3%
NC(=O)c1ccc(N(C(N)=O)c2c(F)cccc2F)nc1-c1ccc(F)cc1F + CCCCCCCCCCCC1=C(O)C(=O)C=C(O)C1=O [Embelin] (first compound 2 µM, partner dose 6 µM) | 92%
CCCCCCCCc1ccc(CCC(N)(CO)CO)cc1 [fingolimod] + O=C(Nc1ccccc1)c1cc([N+](=O)[O-])ccc1Cl [GW9662] (first compound 10 µM, partner dose 10 µM) | 7.17%
NC(=O)c1ccc(N(C(N)=O)c2c(F)cccc2F)nc1-c1ccc(F)cc1F + Cn1cc(/C=C2\C(=O)Nc3cccnc32)c2ccccc21 [GW441756] (first compound 2 µM, partner dose 2 µM) | 86.2%

system: SkMel5; assay: as above; conditions: library dose: standard library concentration; 72 h

Compound | cell count
NC(=O)c1ccc(N(C(N)=O)c2c(F)cccc2F)nc1-c1ccc(F)cc1F + O=C1NC(=O)/C(=C/c2ccc(-c3ccc(F)cc3O)o2)S1 [AS252424] (first compound 2 µM, partner dose 5 µM) | 71.6%
NC(=O)c1ccc(N(C(N)=O)c2c(F)cccc2F)nc1-c1ccc(F)cc1F + COc1ccc(COc2ccc(Cc3cnc(N)nc3N)cc2OC)cc1 [GW2580] (first compound 2 µM, partner dose 5 µM) | 91.4%
NC(=O)c1ccc(N(C(N)=O)c2c(F)cccc2F)nc1-c1ccc(F)cc1F + O=C(O)C(=O)Nc1sc2c(c1C(=O)O)CCNC2 [TCS401] (first compound 2 µM, partner dose 8.33333 µM) | 79.5%
CC(C)(C)c1cnc(CSc2cnc(NC(=O)C3CCNCC3)s2)o1 + CC(C)CCN1c2nc(Nc3cc(F)c(O)c(F)c3)ncc2N(C)C(=O)C1C [BID1870] (first compound 0.05 µM, partner dose 1 µM) | 59.9%
COc1cc2c(Oc3ccc4[nH]c(C)cc4c3F)ncnc2cc1OCCCN1CCCC1 [cediranib] + COc1ccc(-c2ccc3c(N4CCOCC4)nc(N4C[C@@H](C)O[C@@H](C)C4)nc3n2)cc1CO [KU0063794] (first compound 2 µM, partner dose 0.1 µM) | 53.8%
CCc1ccc(CCOc2ccc(CC3SC(=O)NC3=O)cc2)nc1 (stereo unspecified) [pioglitazone] + Cn1cc(/C=C2\C(=O)Nc3cccnc32)c2ccccc21 [GW441756] (first compound 10 µM, partner dose 2 µM) | 70.6%
NC(=O)c1ccc(N(C(N)=O)c2c(F)cccc2F)nc1-c1ccc(F)cc1F + O=c1cc(-c2cccc3c2Sc2ccccc2S3)oc(N2CCOCC2)c1 [KU55933] (first compound 2 µM, partner dose 5 µM) | 67.3%
CN(NC(=O)CC(=O)NN(C)C(=S)c1ccccc1)C(=S)c1ccccc1 + CCc1ccc(CCOc2ccc(CC3SC(=O)NC3=O)cc2)nc1 [pioglitazone] (first compound 0.03 µM, partner dose 10 µM) | 83.9%
NC(=O)c1ccc(N(C(N)=O)c2c(F)cccc2F)nc1-c1ccc(F)cc1F + c1cc(-c2cnn3cc(-c4ccc(OCCN5CCCCC5)cc4)cnc23)ccn1 [Dorsomorphin] (first compound 2 µM, partner dose 2 µM) | 56.4%
Cc1ccc(NC(=O)c2cccc(N(C)C)c2)cc1NC(=O)c1ccc(O)cc1 + COc1ccc(-c2ccc3c(N4CCOCC4)nc(N4C[C@@H](C)O[C@@H](C)C4)nc3n2)cc1CO [KU0063794] (first compound 10 µM, partner dose 0.1 µM) | 71.1%
NC(=O)c1ccc(N(C(N)=O)c2c(F)cccc2F)nc1-c1ccc(F)cc1F + CCN(CC)CCCCNc1ncc2cc(-c3cc(OC)cc(OC)c3)c(NC(=O)NC(C)(C)C)nc2n1 [PD173074] (first compound 2 µM, partner dose 0.5 µM) | 133%
CCCCCCCCc1ccc(CCC(N)(CO)CO)cc1 [fingolimod] + Oc1nc(-c2ccc(C(F)(F)F)cc2)nc2c1CSCC2 [XAV939] (first compound 10 µM, partner dose 10 µM) | 62.4%
